Data as given in patent US20040029860A1, “Anti-proliferative drugs” (priority 2000, published 2004).
Several values for one entry are separate records, joined by “and”; a condition that tells them apart may be missing. Identical values can stand only once. Like-named read-outs stand apart in the source and are kept apart here.

Columns and labels:
[1] = tested on: human prostate (LN-CapAp); experiment: cell viability, prostate LN-Cap; assay type: cell-based; conditions: for IC50: Homo sapiens, LNCaP
Description: The effect of trifluoperazine and flupentixol was studied in two cell-lines of human prostate cancer: androgen dependent (LN-Cap) and androgen independent (PC-3).
(§1) Cyclic antidepressants at varying concentrations (between 10PM and 100 μM) was applied to neuroblastoma SH-SY5T, 3LL lung carcinoma, prostate (LN-CapAp), melanoma B16, and cell viability was determined as described above.

HaCat I5 keratinocytes = experiment: keratinocyte viability, Neutral red, HaCat I5; assay type: cell-based, human
Description: (§2) The drugs were administered at concentrations within the range of 5-100 μM and cell viability was measured 24 hr post-administration by Neutral red staining. The efficiency of the agents against viability of the cell lines was evaluated also by comparison with two commonly used anticancer agents (Doxorubicin and 5-fluorouracil (5-FU)) at equimolar concentrations.

HaCat keratinocytes = experiment: keratinocyte viability, Neutral red, HaCat; assay type: cell-based; conditions: Homo sapiens
Description: as §2

mouse melanoma (B-16) = experiment: cell viability, melanoma B16; assay type: cell-based; conditions: for IC50: Mus musculus
Description: as §1

mouse lung sarcoma (3LL) = experiment: cell viability, lung 3LL; assay type: cell-based; conditions: Table 1B, read-out: Cell viability IC50 Lungs Sarcoma 3LL
Description: In another experiment the effect of clotiapine at the same concentrations on the viability of mouse lung carcinoma (3LL) cells was determined.
as §1

different cell-lines = experiment: mean IC50 over cell lines and therapeutic index
[2] = tested on: human neuroblastoma (SH-SY5T); experiment: cell viability, neuroblastoma SH-SY5T; assay type: cell-based; conditions: for IC50: Homo sapiens
Description: The effect of paroxetine on primary tissue cultures was also evaluated. […] The viability of the cells after treatment with paroxetine was determined by neutral red (NR) technology 24 hr. post treatment.
as §1

[3] = tested on: HaCat II-4RT keratinocytes; experiment: keratinocyte viability, Neutral red, HaCat II4; assay type: cell-based; conditions: Homo sapiens
Description: as §2

[4] = tested on: mouse melanoma B16 MDR cells; experiment: cell viability, melanoma B16 MDR; assay type: cell-based
[5] = tested on: human neuroblastoma (SK-N-SH); experiment: cell viability (neutral red, Almar Blue, Hoechst dye), neuroblastoma SK-N-SH; assay type: cell-based; conditions: for IC50: Homo sapiens, SK-N-SH
rat glioblastoma (C6) = experiment: cell viability, glioma C6; assay type: cell-based
Colon Ht-29 = experiment: cell viability, colon Ht-29; assay type: cell-based; conditions: Homo sapiens, Table 1A
[6] = tested on: human prostate cancer PC-3; experiment: cell viability, prostate PC-3; assay type: cell-based; conditions: Table 1A, read-out: Viability IC50 Prostate PC3
[7] = Table 1B, read-out: Cell viability IC50 Prostate LN-Cap
[8] = single determinations, read-out: IC50 HaCat I5
[9] = mean of the determinations, read-out: IC50 HaCat ME
[10] = single determinations, read-out: IC50 HaCat
[11] = Example 9, read-out: IC50 levels, wild type B16 mouse melanoma
[12] = Table 1B, read-out: Cell viability IC50 Melanoma 16B
[13] = Table 1B, read-out: Cell viability IC50 Neuroblastoma SH-SY5T
[14] = B16, Example 9, FIG. 9, read-out: IC50 levels, transformed (MDR) B16 melanoma
[15] = Table 1B, read-out: Cell viability IC50 Melanoma B16 MDR
[16] = Homo sapiens, HaCaT, mean of the determinations, read-out: IC50 HaCat I5 ME
[17] = Homo sapiens, HaCaT, single determinations, read-out: IC50 HaCat I5
[18] = Table 1A, read-out: Viability IC50 Melanoma B16
[19] = Table 1A, read-out: Viability IC50 Neuroblastoma SH-SY5T

| Compound | IC50 [1, 7] [µM] | IC50 (HaCat I5 keratinocytes; [8]) | IC50 (HaCat keratinocytes; [9]) [µM] | IC50 (HaCat keratinocytes; [10]) [µM] | IC50 (mouse melanoma (B-16); [12]) [µM] | IC50 (mouse lung sarcoma (3LL)) [µM] | IC50 (different cell-lines; read-out: IC50 Mean +/− SD) [µM] | IC50 [3] [µM] | IC50 [4, 15] [µM] | IC50 (HaCat I5 keratinocytes; [16]) [µM] | IC50 (HaCat I5 keratinocytes; [17]) [µM] | also measured |
| --- | --- | --- | --- | --- | --- | --- | --- | --- | --- | --- | --- | --- |
| CN(C)CCCN1c2ccccc2CCc2ccc(Cl)cc21 [Clomipramine] | 22 | 31 µM and 24 µM | 20 | 20 | 20 | < 10 | 19.8 | 16 | 36 | – | – | IC50 (mouse melanoma (B-16); [11]): 15 to 20 µM; IC50 [2, 13]: 21 µM; IC50 [4, 14]: 15 to 20 µM |
| CN1CCN(C2=Nc3cc(Cl)ccc3Nc3ccccc32)CC1 [Clozapine] | 42 | – | > 100 | > 100 | 32 | 33 | 36 | 73 | 35 | > 100 | > 100 | IC50 [2, 13]: 74 µM |
| CN(C)CCC=C1c2ccccc2COc2ccccc21 [Doxepin] | – | – | – | – | 76 | – | 76 | 48 | – | 62 | 62 | – |
| CNCCC(Oc1ccc(C(F)(F)F)cc1)c1ccccc1 (stereo not drawn) [Fluoxetine] | 17 | – | – | – | 14 | < 10 | 14.1 | 13 | 14 | 20 | 20 | IC50 (mouse melanoma (B-16); [11]): 15 to 20 µM; IC50 [4, 14]: 15 to 20 µM |
| OCCN1CCN(CCCN2c3ccccc3Sc3ccc(C(F)(F)F)cc32)CC1 [Fluphenazine] | – | 18 µM | 19 | 16 | – | – | – | – | – | 22 | 26 | IC50 ([5]; Table 1A): 21 µM; IC50 (mouse melanoma (B-16); [18]): 18 µM; IC50 (different cell-lines; read-out: IC50 Mean ± SD): 18.5 ± 2.2 µM; IC50 [2, 19]: 15 µM; IC50 (rat glioblastoma (C6); Table 1A): 20 µM |
| O=C(CCCN1CCC(O)(c2ccc(Cl)cc2)CC1)c1ccc(F)cc1 [Haloperidol] | – | – | – | – | – | – | – | – | – | – | – | IC50 ([5]; Table 1C): ≥ 100 µM; IC50 ([2]; Table 1C, read-out: Viability IC50 Neuroblastoma SH-SY5T): > 100 µM; IC50 (rat glioblastoma (C6); Table 1C): ≥ 100 µM |
| CN1CCN2c3ccccc3Cc3ccccc3C2C1 (stereo not drawn) [Mianserin] | – | – | – | – | – | – | – | – | – | – | – | Viability IC50 Prostate LN-CapAp ([1]; Table 1C): Non Toxic; Viability IC50 Neuroblastoma SH-SY5T ([2]; Table 1C): Non Toxic |
| Cc1nc2n(c(=O)c1CCN1CCC(c3noc4cc(F)ccc34)CC1)CCCC2 [Risperidone] | – | – | – | – | – | – | – | – | – | – | – | Viability IC50 Neuroblastoma SK-N-SH ([5]; Table 1C): Non Toxic; Viability IC50 Melanoma B16 (mouse melanoma (B-16); Table 1C): Non Toxic; Viability IC50 Neuroblastoma SH-SY5T ([2]; Table 1C): Non Toxic |
| CSc1ccc2c(c1)N(CCC1CCCCN1C)c1ccccc1S2 (stereo not drawn) [Thioridazine] | – | 15 µM | 11.5 | 9 | – | – | – | – | – | 14 | 13 | IC50 ([5]; Table 1A): 15 µM; IC50 ([1]; Table 1A, read-out: Viability IC50 Prostate LN-Cap): 14 µM; IC50 (mouse melanoma (B-16); [18]): 16 µM; IC50 (different cell-lines; read-out: IC50 Mean ± SD): 16.5 ± 4.1 µM; IC50 (Colon Ht-29): 19 µM; IC50 [2, 19]: 11 µM; IC50 [6]: 24 µM; IC50 (rat glioblastoma (C6); Table 1A): 13 µM |
